Results: KR20190105077A
Values joined by “and” are separate entries in the source; they are usually repeats but may differ in a detail not shown here. Equal entries are not always repeated.

Legend:
[1] = target: 모든 인간 및 쥐과 TGF-β 이소형; assay: SPR (summing-up sentence of Example 1)
[2] = target: 쥐과 TGF-β2 (murine TGF-β2) (mouse) (UniProt P27090); assay: SPR, Biacore T200, TGF-β homodimer immobilised at low density on CM5 chip, Ab1 injected at 1.11-30 nM, 1:1 model
[3] = target: 인간 TGF-β2 (human TGF-β2) (human) (UniProt P61812); assay: as above
[4] = target: 인간 TGF-β3 (human TGF-β3) (human) (UniProt P10600); assay: as above
[5] = target: 배양된 세포에 의해 내인적으로 생성되는 TGF-β; assay: cell-based or functional assay

Sequence of UniProt P10600 (P10600 301-412): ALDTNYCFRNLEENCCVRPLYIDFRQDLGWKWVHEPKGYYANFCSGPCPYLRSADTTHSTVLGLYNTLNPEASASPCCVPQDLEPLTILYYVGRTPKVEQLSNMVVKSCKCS

| Kd [1] | Kd [2] | koff [2] | kon [2] | Kd [3] | koff [3] | kon [3] | Kd [4] | koff [4] | kon [4] | iTreg(FOXP3+CD25+) 백분율, 자극된 인간 CD4+ T 세포, 항체 50 ㎍/㎖, 외인성 TGF-β 없음 (항체 없이 15%) [5] | Binder |
| --- | --- | --- | --- | --- | --- | --- | --- | --- | --- | --- | --- |
| 1 nM and 5 nM | 1.88 nM | 0.000645 s⁻¹ | 348000 M⁻¹ s⁻¹ | 3 nM | 0.000823 s⁻¹ | 286000 M⁻¹ s⁻¹ | 1.65 nM | 0.000372 s⁻¹ | 223000 M⁻¹ s⁻¹ | 8% | Ab1 (antibody, human IgG4 S228P, kappa) heavy: QVQLVQSGAEVKKPGSSVKVSCKASGYTFSSNVISWVRQAPGQGLEWMGGVIPIVDIANYAQRFKGRVTITADESTSTTYMELSSLRSEDTAVYYCASTLGLVLDAMDYWGQGTLVTVSSASTKGPSVFPLAPCSRSTSESTAALGCLVKDYFPEPVTVSWNSGALTSGVHTFPAVLQSSGLYSLSSVVTVPSSSLGTKTYTCNVDHKPSNTKVDKRV[human IgG4 Fc with S228P (EU numbers) omitted here] light: ETVLTQSPGTLSLSPGERATLSCRASQSLGSSYLAWYQQKPGQAPRLLIYGASSRAPGIPDRFSGSGSGTDFTLTISRLEPEDFAVYYCQQYADSPITFGQGTRLEIKRTVAAPSVFIFPPSDEQLKSGTASVVCLLNNFYPREAKVQWKVDNALQSGNSQESVTEQDSKDSTYSLSSTLTLSKADYEKHKVYACEVTHQGLSSPVTKSFNRGEC |
| – | – | – | – | – | – | – | – | – | – | 7% | 프레솔리무맵 (fresolimumab) (antibody, human IgG4, kappa) heavy: QVQLVQSGAEVKKPGSSVKVSCKASGYTFSSNVISWVRQAPGQGLEWMGGVIPIVDIANYAQRFKGRVTITADESTSTTYMELSSLRSEDTAVYYCASTLGLVLDAMDYWGQGTLVTVSSASTKGPSVFPLAPCSRSTSESTAALGCLVKDYFPEPVTVSWNSGALTSGVHTFPAVLQSSGLYSLSSVVTVPSSSLGTKTYTCNVDHKPSNTKVDKRV[human IgG4 Fc omitted here] light: ETVLTQSPGTLSLSPGERATLSCRASQSLGSSYLAWYQQKPGQAPRLLIYGASSRAPGIPDRFSGSGSGTDFTLTISRLEPEDFAVYYCQQYADSPITFGQGTRLEIKRTVAAPSVFIFPPSDEQLKSGTASVVCLLNNFYPREAKVQWKVDNALQSGNSQESVTEQDSKDSTYSLSSTLTLSKADYEKHKVYACEVTHQGLSSPVTKSFNRGEC |
